# Test results from the supplement of paper PMC3334620.
# The full ranking holds about 33,000 sequences; the median of “E-score (-0.5 to 0.5)” is about -0.012, and the highest 2% start at about 0.27. Some of the results follow.
# Target: T1, Vhr1 (UniProt P40522)
# T1 sequence: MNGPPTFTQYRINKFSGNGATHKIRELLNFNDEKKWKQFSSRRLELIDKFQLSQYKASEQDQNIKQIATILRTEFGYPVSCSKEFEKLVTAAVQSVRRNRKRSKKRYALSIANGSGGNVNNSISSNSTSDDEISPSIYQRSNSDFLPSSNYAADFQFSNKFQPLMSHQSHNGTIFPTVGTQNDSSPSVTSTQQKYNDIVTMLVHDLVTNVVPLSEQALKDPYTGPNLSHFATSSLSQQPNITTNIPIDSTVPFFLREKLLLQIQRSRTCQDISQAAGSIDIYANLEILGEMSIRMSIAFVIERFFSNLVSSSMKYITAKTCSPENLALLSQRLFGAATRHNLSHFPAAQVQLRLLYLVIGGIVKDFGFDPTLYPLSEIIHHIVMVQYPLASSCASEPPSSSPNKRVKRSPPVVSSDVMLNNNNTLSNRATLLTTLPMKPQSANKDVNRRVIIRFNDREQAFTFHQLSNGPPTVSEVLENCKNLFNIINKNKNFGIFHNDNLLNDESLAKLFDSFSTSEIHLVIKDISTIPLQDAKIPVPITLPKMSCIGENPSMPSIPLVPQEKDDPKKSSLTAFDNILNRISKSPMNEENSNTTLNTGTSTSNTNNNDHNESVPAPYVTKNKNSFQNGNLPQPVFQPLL
# Test: PBM E-score (8-mer binding enrichment) (E-score (-0.5 to 0.5)); higher = stronger / more preferred TF binding; most listed sequences are background and not binding sites
# Details: protein concentration: 200 nM; construct: GST-full length
# Procedure, shortened: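 Using PURExpress in vitro transcription/translation, GST-tagged yeast transcription factors were made in full-length or DNA-binding-domain form. These were applied at about 100-200 nM to double-stranded universal all-10-mer Agilent arrays, and bound protein was detected with fluorescent anti-GST. Scans were normalised with masliner before the Universal PBM Analysis Suite assigned E-scores to ungapped eight-base words pooled with their reverse complements.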
row,Sequence,PBM E-score
1,AACATTGA,0.00112
2,CCACTCGA,0.0905
3,CGTGAGAA,-0.222
4,CGCGGGAC,0.0875
5,CATGGCAC,0.105
6,CACTTCCG,-0.104
7,AGGAATGA,0.116
8,GTGCGACA,-0.0343
9,AGTTAGTC,0.291
10,ACGCAAGT,-0.105
11,AACGAGTG,-0.077
12,TAACAGGA,-0.0644
13,ATACTCCG,0.21
14,GCCGATAC,-0.161
15,CGAAATGC,-0.0453
16,CACGCATC,0.131
17,GCTAGTGA,0.2
18,CCGGTTAG,-0.0555
19,CGGCGCAG,0.113
20,ACCCTCAT,-0.12
21,AGTACCAC,0.0731
22,CTGGAGTC,0.356
23,CTCCAAGA,0.0375
24,CTACCGAA,-0.0324
25,CGCCTAAC,0.139

row,Sequence,PBM E-score
1,CAACAATA,0.0134
2,ACCCCCCT,-0.256
3,TACTGTCA,0.0937
4,AGGATTCA,-0.0305
5,GTCACGGA,0.257
6,CAGATTGG,0.102
7,ATATGAAC,0.163
8,CCAGTGAC,0.0549
9,ACCGGCAT,0.0508
10,CACAAATG,-0.0359
11,ACTAGACG,-0.048
12,GTACGGCA,0.0215
13,GCGGACCC,-0.0401
14,CAACGGAA,-0.0217
15,AAGAAGTA,-0.108
16,AAGATACA,0.0496
17,ATATGGGG,0.141
18,AGAGAGCG,-0.237
19,CACCAAGC,0.0401
20,ATGGGGGC,-0.242
21,CAGTCCCC,-0.122
22,GGTCTGTA,0.191
23,AAAGGCGC,-0.0831
24,TCAAGTCA,0.111
25,AACCAGGC,0.0532

row,Sequence,PBM E-score
1,TCGTGAGA,-0.104
2,CTCGCACC,0.158
3,ACGTTTTC,-0.0937
4,GTCTGAAC,0.0334
5,AAGAATTC,-0.155
6,AAGGCGAA,-0.22
7,ATTAAAAA,0.0365
8,AGGCAACC,0.016
9,GTCCGGCA,0.0604
10,CAACGCAA,0.00391
11,GGCGAACA,-0.0374
12,ACATGGGG,0.0107
13,CCCGGCGG,0.182
14,CGTCGTCC,-0.143
15,GCTAACAC,0.175
16,AAATGAGC,-0.154
17,ATATCCAC,0.142
18,CGTACCTC,-0.0644
19,ATTCGGCG,-0.00502
20,AGGCGTAT,0.189
21,GGGTATGA,0.243
22,CCAAAAGA,-0.201
23,AGGCGAGC,-0.1
24,CACCGACG,-0.012
25,GTTAGCAA,0.0562

row,Sequence,PBM E-score
1,CCCATAAG,0.03
2,AGCCTCCT,-0.145
3,ACCCTAGG,-0.098
4,AATGGCTA,0.091
5,TGGACCAA,-0.132
6,ATAGACAC,0.182
7,CCAACCGG,-0.0705
8,AGTTCCTC,-0.258
9,AAATCAGC,0.121
10,GAACAATC,-0.0437
11,CATGCAGG,0.0608
12,CTTCGCCC,-0.136
13,AGTGATGC,0.0449
14,GTTGAATA,0.0699
15,AGATACAC,0.0945
16,ACCGGGCT,-0.171
17,GCCGATCA,-0.00422
18,GATTCGAA,0.195
19,ACTAATTA,0.211
20,CACCATCC,-0.00126
21,CATCACAC,0.269
22,AGATTGCT,-0.0342
23,CTTGACAA,-0.0176
24,GAGGCGAA,-0.15
25,CGAGGGTC,-0.149

row,Sequence,PBM E-score
1,ATGTGGGA,-0.0537
2,GCTGTACA,-0.0316
3,AATTTGCG,0.0626
4,GAACATTC,-0.0635
5,CACTGGAA,0.0326
6,GACAAGCA,-0.143
7,ATTCTTTC,-0.107
8,GAGCGAGA,0.111
9,AAGCTCGT,-0.0771
10,ACTGGAAA,-0.0251
11,GGCCTGAC,0.00742
12,ACATTAGG,-0.191
13,ACGCCTCT,-0.119
14,CGCCGATA,-0.0619
15,ACCGAAGC,0.053
16,ATCGCGCG,0.265
17,ACGAAGGC,-0.167
18,CGAGCCTC,0.0576
19,CCGCAGGA,-0.0544
20,ACAGAAGT,-0.197
21,ATCGATCA,0.14
22,TCACCTGA,0.0724
23,GCCAGCCC,-0.00869
24,CCGTAAAC,-0.0934
25,CCATGGAC,0.00162

row,Sequence,PBM E-score
1,AGGCGACC,-0.143
2,GATCATCA,0.0291
3,AAAGGTCG,-0.106
4,TCATTAAA,0.134
5,CTTACGTC,-0.22
6,TCTTAAAA,-0.354
7,CTTAGTAA,-0.0159
8,GTTATGGA,0.038
9,ACTGTAGG,0.11
10,ACGAAGGA,-0.158
11,ACTCTACA,0.0564
12,AGCACGCT,-0.102
13,CACTCCGA,-0.0188
14,TCCATGCA,0.201
15,AGTGCTTG,-0.102
16,CGAATGTC,0.0181
17,ATTTGCCG,-0.174
18,CTCTCCTA,-0.0133
19,AACATACG,0.0846
20,AAGCACCA,-0.146
21,AATGCCCG,-0.179
22,ACCAATAG,0.00571
23,CCTCTGCC,-0.286
24,GGACGCGA,-0.0696
25,AGCTGTAT,-0.146

row,Sequence,PBM E-score
1,ACCTTACC,0.0981
2,TAGCAACA,-0.0609
3,CCGCTAGC,-0.266
4,CGAGTTTC,-0.00759
5,AGTGGTTG,0.183
6,ACGGCGTG,0.0502
7,GAAGGACC,-0.221
8,GAATAGCC,-0.117
9,AACAGCGA,-0.098
10,ATGAACAA,0.125
11,GAGGCTAC,-0.056
12,AATAGGCA,0.0547
13,AGTAAATC,0.0723
14,GGATAAGA,-0.0576
15,AACACGCC,0.0583
16,GAAATGTC,-0.0746
17,AAGATTGA,0.0603
18,GAATAGTA,0.0443
19,CGTATCCA,0.113
20,CTAAGAAG,-0.0875
21,CAAACCCA,0.125
22,GAGCGACC,-0.162
